Measured values taken from the supplement of paper PMC4604168 (melanoma cell lines).
This is one part of the list. Single values are uncertain, as repeats are few or missing.

How the values were obtained:
Assay in all cases: cell count relative to DMSO control; melanoma cells; higher = more viable cells
Conditions in all cases: library dose: low library concentration; 72 h
COLO792 = test system: COLO792
COLO800 = test system: COLO800
COLO829 = test system: COLO829
G361 = test system: G361
IPC-298 = test system: IPC-298
IST-MEL1 = test system: IST-MEL1
LB2518-MEL = test system: LB2518-MEL
LOXIMVI = test system: LOXIMVI
MEL-HO = test system: MEL-HO
MZ2-MEL = test system: MZ2-MEL
MeWo = test system: MeWo
RPMI7951 = test system: RPMI7951
RVH-421 = test system: RVH-421
SkMel28 = test system: SkMel28
SkMel30 = test system: SkMel30
SkMel5 = test system: SkMel5
UACC257 = test system: UACC257
UACC62 = test system: UACC62
WM115 = test system: WM115
WM1716 = test system: WM1716
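Further: cell number obtained by counting DAPI-stained nuclei in high-throughput microscope images with image analysis software, screen run in 1,536-well plates.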

SMILES | cell count (COLO792) [%] | cell count (COLO800) [%] | cell count (COLO829) [%] | cell count (G361) [%] | cell count (IPC-298) [%] | cell count (IST-MEL1) [%] | cell count (LB2518-MEL) [%] | cell count (LOXIMVI) [%] | cell count (MEL-HO) [%] | cell count (MZ2-MEL) [%] | cell count (MeWo) [%] | cell count (RPMI7951) [%] | cell count (RVH-421) [%] | cell count (SkMel28) [%] | cell count (SkMel30) [%] | cell count (SkMel5) [%] | cell count (UACC257) [%] | cell count (UACC62) [%] | cell count (WM115) [%] | cell count (WM1716) [%]
COC(=O)c1sccc1S(=O)(=O)Nc1ccc(Nc2ccccc2)cc1OC + c1cc(-c2cnn3cc(-c4ccc(OCCN5CCCCC5)cc4)cnc23)ccn1 [Dorsomorphin] (first compound 1 µM, partner dose 0.4 µM) | 93.4 | 126 | 103 | 92.2 | 105 | 104 | 108 | 107 | 106 | 89.6 | 103 | 98.4 | 103 | 87.3 | 102 | 74.2 | 96.4 | 103 | 100 | 112
COc1cc2ncnc(Nc3ccc(Oc4ccccc4)cc3)c2cc1OC + Cn1cc(/C=C2\C(=O)Nc3cccnc32)c2ccccc21 [GW441756] (first compound 2 µM, partner dose 0.4 µM) | 77.5 | 109 | 94.7 | 92.1 | 93.8 | 98.3 | 145 | 119 | 97.8 | 82.5 | 94.8 | 106 | 114 | 83.7 | 96.1 | 80.9 | 78.9 | 88.7 | 103 | 104
COC(=O)c1sccc1S(=O)(=O)Nc1ccc(Nc2ccccc2)cc1OC + Oc1nc(-c2ccc(C(F)(F)F)cc2)nc2c1CSCC2 [XAV939] (first compound 1 µM, partner dose 2 µM) | 84.9 | 138 | 92.6 | 90.4 | 99.4 | 97.4 | 95.4 | 129 | 92.1 | 92.5 | 82.9 | 89 | 77.2 | 92.1 | 121 | 86.1 | 90.4 | 87.9 | 91.8 | 69.3
COc1ccc(COc2ccc(Cc3cnc(N)nc3N)cc2OC)cc1 + COc1cc2ncnc(Nc3ccc(Oc4ccccc4)cc3)c2cc1OC [SrcI1] (first compound 1 µM, partner dose 2 µM) | 91.3 | 101 | 94.9 | 101 | 94.8 | 101 | 116 | 112 | 85.5 | 93.1 | 93.3 | 107 | 8.52 | 87.2 | 97.9 | 97 | 102 | 96.2 | 102 | 112
COc1ccc(COc2ccc(Cc3cnc(N)nc3N)cc2OC)cc1 + COc1cc(N2CCC(N3CCN(C)CC3)CC2)ccc1Nc1ncc(Cl)c(Nc2ccccc2S(=O)(=O)C(C)C)n1 [NVP-TAE684] (first compound 1 µM, partner dose 0.08 µM) | 102 | 127 | 93.6 | 89.7 | 94.7 | 96.8 | 100 | 96.5 | 96.8 | 101 | 92.1 | 102 | 93.7 | 101 | 97.4 | 95.3 | 94.2 | 92.2 | 81.7 | 89.9
COc1ccc2c(c1)CCC1C2CCC2(C)C(NCCCCCCN3C(=O)C=CC3=O)CCC12 (stereo not given) + O=C(O)C(=O)Nc1sc2c(c1C(=O)O)CCNC2 [TCS401] (first compound 0.4 µM, partner dose 1.66667 µM) | 96.8 | 95.9 | 98.7 | 98.5 | 96.4 | 94.8 | 96.8 | 114 | 89 | 99.7 | 93 | 59.4 | 110 | 91.5 | 87.8 | 110 | 88.6 | 89.9 | 85.3 | 88
N#Cc1c(O)c2c(-c3ccc(-c4ccccc4O)cc3)csc2[nH]c1=O + O=C1NC(=O)/C(=C/c2ccc(-c3ccc(F)cc3O)o2)S1 [AS252424] (first compound 2 µM, partner dose 1 µM) | 94 | 189 | 92.3 | 91.7 | 102 | 101 | 88.7 | 76.1 | 96 | 97.6 | 97.1 | 106 | 124 | 91 | 77.7 | 95.3 | 90.9 | 105 | 99.3 | 107
COc1ccc2c(c1)CCC1C2CCC2(C)C(NCCCCCCN3C(=O)C=CC3=O)CCC12 (stereo not given) + COc1ccc(COc2ccc(Cc3cnc(N)nc3N)cc2OC)cc1 [GW2580] (first compound 0.4 µM, partner dose 1 µM) | 90.4 | 109 | 106 | 94.6 | 97.1 | 88.1 | 91.9 | 130 | 83.3 | 100 | 80.3 | 55 | 108 | 91.6 | 99.9 | 90.6 | 86.8 | 94.2 | 98.9 | 81.2
N#Cc1c(O)c2c(-c3ccc(-c4ccccc4O)cc3)csc2[nH]c1=O + Cc1cc([N+](=O)[O-])ccc1NS(=O)(=O)c1cc(Cl)ccc1Cl [FH535] (first compound 2 µM, partner dose 1 µM) | 91.5 | 97.8 | 87.6 | 83.7 | 99.6 | 83.6 | 97.8 | 75.9 | 109 | 98.4 | 93.2 | 107 | 79.1 | 88.5 | 97.6 | 91 | 101 | 84.9 | 103 | 105
